Assay results taken from PubChem BioAssay AID1508623 (National Center for Advancing Translational Sciences (NCATS), 2021).
The whole screen tested about 48,000 compounds, of which about 450 (0.94%) were called active. Another 19% or so got no clear call; they are omitted. Calls follow the shape of the dose curve; as a rule, active = well fitted inhibition curve with a large enough effect; inconclusive = small, poorly fitted or top-dose-only effect; inactive = no such curve, though single readings can be large or run the other way. Some of the results follow.

assay: Primary qHTS for Identification of Small Molecule Inhibitors of Huntingtin Promoter Activity; conditions: HEK293 HTT promoter firefly luciferase reporter (activity 0% = vehicle and -100% = no light), 24 h; series mostly up to 57.5 µM; activity change, negative = inhibition: at the top concentration; also: nearly all actives have a fitted effect of over 50% in size
How it was run: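 HEK293 cells carrying firefly luciferase reporters were seeded at 2,500 per well in Opti-MEM and cultured for 24 h. They were then treated with compounds at up to 57.5 uM final for 24 h at 37 degrees C before Dual-Glo luminescence readout.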

Activity change, negative = inhibition, inactive:
Cc1cccc(N2CCN(C(=O)Nc3cn(CC(C)C)c(=O)c4ccccc34)CC2)c1C -22.8%, CCc1nn(CC(=O)NCCCN(CC(C)C)CC(C)C)c(=O)c2cc3sc(C)cc3n12 -0.605%, COc1ccccc1N1CCN(C(=O)Cn2cnc3onc(-c4ccc(F)cc4)c3c2=O)CC1 -18.6%, COc1ccc(Cn2c(=O)c3oc4ccccc4c3n(Cc3cccc(C(F)(F)F)c3)c2=O)cc1 -19.5%, Cc1nn(-c2ccccc2)c2c1N(CC(=O)N1CCN(c3cccc(Cl)c3)CC1)C(=O)CS2 -20.2%, COc1cccc(N2CC(NC(=O)c3ccco3)CC2=O)c1 (configuration not stated) -17.5%, CCOC(=O)c1ccccc1NC(=O)CSc1nc2cn(CC)nc2c(=O)n1Cc1ccc(Cl)cc1 -6.81%, Cc1ccc2c(c1)c1c(c(=O)n(-c3cccc(Cl)c3)c(=O)n1CC(=O)Nc1c(C)cccc1C)n2C 5.76%, Cc1ccc(CN2CCSc3ccc(C(=O)N4CCN(c5ccccc5)CC4)cc32)cc1 -10.3%, O=C(CC1N=C2c3ccccc3N=C(SCc3ccc(Cl)cc3)N2C1=O)NCc1cccs1 (configuration not stated) -5.87%, COc1ccc(N2CCN(C(=O)C3CCN(S(=O)(=O)c4cccs4)CC3)CC2)cc1 -22.2%, CC(=O)O[C@]1(C(C)=O)CC[C@H]2[C@@H]3C=C(C)C4=CC(=O)CC[C@]4(C)[C@@H]3CC[C@@]21C -1.72%, O=c1c2cc3c(cc2n(Cc2ccc(Cl)cc2)c(=O)n1Cc1nc(-c2ccccc2)no1)OCO3 -6.56%, Cc1ccc(-n2c(Cc3ccccc3)nnc2SCc2nc(-c3cccs3)no2)cc1 -26%, Cc1ccc(O)c(C(CCN(C(C)C)C(C)C)c2ccccc2)c1 (configuration not stated) -0.423%, Cc1ccc(-c2noc(C(C)NS(=O)(=O)c3ccc(C)cc3)n2)cc1 (configuration not stated) -29.7%, COc1ccc(CNC(=O)Cc2c(C)c3cc4c(C)coc4c(C)c3oc2=O)cc1 -10.1%, Cc1ccc(C)c(CN2CCCN(Cc3ccc(F)cc3)S2(=O)=O)c1 -14.4%, Cc1nc(-n2nc(C)c(Cc3ccccc3Cl)c2C)sc1C(=O)Nc1ccccc1F -6.93%, CCOC(=O)Cn1c(=O)n(CC2CCCO2)c2nc(-c3ccc(C)cc3)nc(C(N)=O)c21 (configuration not stated) -12.2%, CC(=O)c1ccc(S(=O)(=O)N2CCn3cccc3C2c2ccc(C)cc2)cc1 (configuration not stated) -20.4%, Cc1ccc2nc3c(cc(C(=O)NCC4CCCO4)c(=N)n3C(C)C)c(=O)n2c1 (configuration not stated) -19.3%, COc1ccccc1NC(=O)C(=O)NCC(c1ccc2c(c1)OCO2)N1CCOCC1 (configuration not stated) -6.11%, COc1ccccc1/C=C/c1nc2ccccc2n1C(C)C 12.4%, COc1ccc(Cl)cc1NC(=O)Cc1ccc(NC(=O)N2CCCCc3ccccc32)cc1 -20.9%, CN1C(=O)CC[C@H]1c1cccnc1 6.35%, CCn1c(C)c(C2N3CC4(C)CN2CC(C)(C3)C4=O)c2ccccc21 (configuration not stated) -6.95%, C/C(=N\O)[C@@H](C)NCC(C)(C)CN[C@H](C)/C(C)=N/O -6.15%, CSc1ccc(CCNC(=O)c2cnc3c(C)cccn3c2=O)cc1 5.15%, CC(=O)c1cccc(-n2c(=O)c3c4c(sc3n(CC(=O)c3ccccc3)c2=O)CN(C(C)=O)CC4)c1 -2.15%, CC(=O)c1cc2c(cc1N/C(=N/S(=O)(=O)c1ccc(Cl)cc1)c1ccc(F)cc1)OCO2 -15.1%, CCc1ccccc1NC(=O)Nc1c[nH]c(=O)[nH]c1=O 8.85%, Cc1ccc(C)c(N2CCN(C(=O)c3ccc(NC(=O)c4nsc5ccccc45)cc3)CC2)c1 -24.5%, COc1cc(C(=O)Oc2c(Sc3ccccc3)c(C)nn2-c2ccccc2)cc(OC)c1OC -25.5%, Cc1ccc(/C=C/c2onc(C)c2S(=O)(=O)N2CCC(C(=O)Nc3ccc(C)c(N(C)C)c3)CC2)cc1 -21.1%, Cc1nn(-c2ccccc2)c(OC(=O)C(C)C)c1Sc1ccc(Cl)cc1 -22.7%, Cc1ccc(CNC(=O)CCCCCn2c(=O)[nH]c3ccccc3c2=O)cc1 -0.692%, CC1CCCN(CCCNC(=O)c2ccc3c(c2)N(Cc2ccccc2F)C(=O)c2ccccc2S3(=O)=O)C1 (configuration not stated) -14.7%, Cc1ccccc1-c1nc(CN2CCC(C(=O)NCc3ccccc3Cl)CC2)c(C)o1 5.95%, CCOc1ccc(N2CC(NC(=O)CCc3ccccc3)CC2=O)cc1 (configuration not stated) 5.28%, Cc1cc(C)c(NC(=O)Cn2c(=O)n(CC(=O)NCc3ccccc3Cl)c(=O)c3sccc32)c(C)c1 1.7%, COC(=O)c1ccc(NC(=O)CCS(=O)(=O)c2ccc(Br)cc2)cc1 -19.3%, CC(=O)c1cc2c(cc1N/C(=N/S(=O)(=O)c1ccc(C)cc1)c1ccccc1)OCO2 -22.4%, CCOC(=O)c1c(NC(=O)/C=C/c2ccc(OCC)cc2)sc(C)c1C -8.52%, COC(=O)C(NC(=O)CC(C)C)(Nc1nc2c(s1)CCCC2)C(F)(F)F (configuration not stated) -17.2%, CCc1cnc2c(c1SCC(=O)N1CCCCC1)c(=O)n(C)c(=O)n2C -10.3%, CCCCOc1ccc(C(=O)NCCS(=O)(=O)N2CCN(c3ccc(F)cc3)CC2)cc1 -15.3%, CCOc1ccc(CNCc2c(C(=O)O)n(Cc3ccccc3F)c3cc(OC)ccc23)cc1 -20.1%, COc1ccc(C(=O)NC2(C(F)(F)F)C(=O)NC(C)=C2C#N)cc1OC (configuration not stated) -2.27%, CCC(=O)N1CCc2cc(Br)cc(S(=O)(=O)N3CCC(C(=O)Nc4ccc(OC)cc4)CC3)c21 -19.5%, O=C(CSc1nc2ccccc2nc1Cc1ccccc1)NCc1ccccc1Cl 10.1%, CCc1ccc(NC(=O)c2ccc3c(O)c(S(=O)(=O)c4ccc(Cl)cc4)c(=O)[nH]c3c2)cc1 8.37%, Cc1cccc(OC(C)C(=O)Nc2ncn[nH]2)c1 (configuration not stated) -13.7%, CCCCN(CC)CCCNC(=O)c1sc2nc(C)cc(C)c2c1-n1cccc1 -1.28%, COc1ccc(CN(C(=O)COc2ccccc2OC)C2CCS(=O)(=O)C2)cc1 (configuration not stated) -0.516%, Cc1ccc(C)c(NC(=O)CN2C(=O)CCc3ccccc32)c1 -58.3%, CCN(CC)c1cc(C)c2cc(NC(=O)c3cccc(OC)c3)ccc2n1 -11.5%, Cc1ccc(NC(=O)CN(C)S(=O)(=O)c2ccc3c(c2)n(C)c(=O)c(=O)n3C)cc1C -16.8%, Cc1ccc(-c2nc3c4ccccc4n(CC(=O)N4CCN(c5ccccc5F)CC4)c(=O)n3n2)cc1 2.87%, Cc1ccccc1CNC(=O)c1cnc2sc(N3CCOCC3)nn2c1=O 2.94%, Cc1ccc(-n2nnnc2CNC(=O)C(C)(C)C)cc1C 5.9%, Cc1nc(SC(C)C(=O)Nc2ccccc2C)cc(-c2ccccc2)n1 (configuration not stated) -14.2%, Cc1ccccc1C(=O)c1cccn1CC(=O)NCc1ccccc1 18.6%, CCOc1ccc(CCNC(=O)Cn2nc(C)n3c(cc4occc43)c2=O)cc1OCC -7.44%, CCn1c2ccccc2c2nnc(SCC(=O)O)nc21 -4.11%, CCOC(=O)c1ccccc1O -3.15%, COc1ccc(CNC(=O)CSc2nc(-c3ccc(OC)cc3)cc(C(F)(F)F)n2)cc1 -10.5%, CC(C)Oc1ccc(CNC(=O)c2cc3ccccn3n2)cc1 25.9%, Cc1ccc(CCNC(=O)CCCn2nc(C)c3c(C)n(-c4ccccc4)nc3c2=O)cc1 11.8%, COc1cccc(-c2cc(C(=O)Nc3cc(Cl)ccc3O)on2)c1 31.9%, COc1cc(OC)c(NC(=O)C2CCCN(c3ncnc4c3nc3n4CCCCC3)C2)cc1Cl (configuration not stated) -17.9% [at 11.5 µM], Cc1c(NC(=O)c2cccnc2)c(=O)n(-c2ccccc2)n1C 6.3%, O=C(NCCc1ccccc1)c1cnc2sc(N3CCCC3)nn2c1=O -26.3%, CCCc1nn2c(=O)cc(COC(=O)c3cccc(NC(=O)COc4ccccc4C)c3)nc2s1 23%, CC(=O)c1c(C)nc2nc(-c3ccccc3)nn2c1C 39.3%, CCCCOc1ccc(C(=O)N2CCN(CCc3ccncc3)CC2)cc1 2.94%, COc1ccccc1N1CCN(C(=O)c2nn(-c3ccc(C)cc3)c(=O)n(C)c2=O)CC1 -24.4%, CCOC(=O)c1ccc(Nc2c(-c3ccc(O)c(OC)c3)nc3nc[nH]n23)cc1 -2.02%, Cc1cc(F)ccc1S(=O)(=O)NCC(c1ccco1)S(=O)(=O)c1cccs1 (configuration not stated) -16.5%, Cc1cc2nnc(SCC(=O)Nc3ccc(F)c(Cl)c3)n2c2ccccc12 8.66%, CCc1nn2c(=O)cc(COC(=O)c3cccc(NC(=O)c4ccccc4Cl)c3)nc2s1 3.63%, CS(=O)(=O)OCCCCOS(C)(=O)=O, CCc1ccc2c(c1)c(=O)c(S(=O)(=O)c1ccc(F)cc1)cn2CC(=O)Nc1ccc(C)cc1C -31.3%, Cc1ccc(CNC(=O)C2CCCN(S(=O)(=O)c3cccc4nsnc34)C2)cc1 (configuration not stated) 5.83%, CCCn1ccc2c(OCC(=O)NCc3ccc(C)cc3)cccc2c1=O 0%, Cc1cccc(NC(=O)c2ccc(N(Cc3ccccc3)S(C)(=O)=O)cc2)c1 49.9%, CCN(CCCNC(=O)c1cc2c(=O)n(C)c3ccccc3c2s1)Cc1ccccc1 21.7%, COc1ccc(CNC(=O)c2cnc3sc(N4CCCC4)nn3c2=O)cc1OC -21.1%, Cc1cc2ncn(CCCCOc3ccccc3)c2cc1C 0.12%, COc1cc(-c2nnn(CC(=O)Nc3ccc(OC(F)(F)F)cc3)n2)cc(OC)c1OC -11.6%, CCOC(=O)c1c(C)[nH]c(CCC(=O)Nc2cc(C)ccc2OC)c1C -29.2%, CC1CCC(NC(=O)c2ccc3c(c2)N(Cc2ccccc2)C(=O)c2ccccc2S3=O)CC1 (configuration not stated) -11.1%, CCOC(=O)c1cccc(NC(=O)CN2C(=O)c3ccccc3Sc3ncccc32)c1 -2.4%, Cc1ccc(C(=O)NCc2ccc(N(C)C)cc2)cc1NC(=O)c1nsc2ccccc12 -18.2%, CN1C(C(=O)Nc2ccc(F)cc2F)=CC(c2ccco2)=NS1(=O)=O -7.01%, O=C(CSCc1ccccc1Cl)N1CCN(c2ccc(F)cc2)CC1 -7.73%, Cc1nnc(NCc2ccccc2)c2c1nnn2Cc1ccccc1Cl -7.86%
